# Measured values as given in PMC12136788.
# The other results are listed elsewhere or left out.
# B1: 23985464_23985584_443_3pUTR_ENSG00000151835_ENST00000382298|human|control|control (ssRNA)
# RNA: GGGAGUUCUACAGUCCGACGAUCAAAUGUGUACUCCAAGUUCAGCUCUUCCUGCCAGGUGGAAAAAAAGCCUGUUUUUCCCUUCAGUGUCCAUUCAUCAUCUGAUGUCAGGAAACAUUGUCGUGUGUUGCAUUUGUAUUCCUUCAACAGAGGAUUGAGCAUCA
# B2: chr4:175160266:175160267:-_ENSG00000164117_ENST00000503293|hu_hu|motif|central (ssRNA)
# RNA: GGGAGUUCUACAGUCCGACGAUCAGGGGCAUGGAUAUGACGAAAAAAUUCUCUCAGUGCAUUUGGCAAGAACUGAUUUCGGAAAUUAUGCAAUGUUACAAGGUCAUCCAAGACAUCUCUCCUUUCAUCAAGAUAGAUUCUCAGCAACAGAGGAUUGAGCAUCA
# B3: chr2:69661947:69661948:+_ENSMUSG00000042155_ENSMUST00000053087|mus_mus|FALSE|FALSE (ssRNA)
# RNA: GGGAGUUCUACAGUCCGACGAUCAGCUCGGUGACAAUGGAAGAUUAUGCCUGAAGGACACUGAAGGGUAAUAUCAGUAAAUAGUCCAUCCAUGUAAAACGUUCUGAAUGCAUCCAGAAAAUCCACUGGAUGCGACGAAUCCUUCAACAGAGGAUUGAGCAUCA
# B4: chr2:198351390:198351391:-_ENSG00000144381_ENST00000345042|hu_hu|hu_hu_hu_mus_False|1_48 (ssRNA)
# RNA: GGGAGUUCUACAGUCCGACGAUCUCAUUCCCACCCUCCACAGAAAGGCUGCUUCUGAACUCUCAUGUGGUGACACAGCGCUACAGUCCUGAUUUUAACAGAACAGUAGAGAUGCCUCAGUGAUUUAAGUUGAAAGCAGCAGUACAACAGAGGAUUGAGCAUCA
# B5: chr2:153593888:153593889:+_ENSMUSG00000027479_ENSMUST00000028981|mus_mus|motif|central (ssRNA)
# RNA: GGGAGUUCUACAGUCCGACGAUCCUCAGUAGUGGGUAACACAUUUUGCAGAGUUCGCCAAACAAAGGAAUUGAAUAGGCGGUGGGUAAAGCAAUUGAGGGAGAAUUAAGGAAUGAAGUAUUUUAAAUAUUAAUAUUUCAGUCACAACAGAGGAUUGAGCAUCA
# B6: chrX:71549762:71549763:+_ENSMUSG00000019087_ENSMUST00000019231|mus_mus|mus_mus_mus_hu_False|1_88 (ssRNA)
# RNA: GGGAGUUCUACAGUCCGACGAUCAAACCCGUGUACUUCUUAUUGUUACAUCACCCCCACCAGAAAACGAUAACGACAGCCAAGCAGGACAGACAGUUAAGUAGUACUUCCACACUCCCAAACUCAGGGAGCCCUAUAGUUCAUCAACAGAGGAUUGAGCAUCA
# B7: chr7:157178285:157178286:+_ENSG00000105993_ENST00000429029|hu_hu|FALSE|FALSE (ssRNA)
# RNA: GGGAGUUCUACAGUCCGACGAUCGAAUUACUUGUUAUCCAAGCGCAGCAGCUGCUCCUUACCAUUUAUUGUUAAGGACUUUAACUGGCCAUCUUCUUCAACUUCUACUCUUUCUUGACCGUUCUCGACAAUUCUCUUUGUAGUCAACAGAGGAUUGAGCAUCA
# B8: chr1:109605286:109605287:-_ENSG00000197780_ENST00000461096|hu_mus|hu_hu_hu_mus_True|38_38 (ssRNA)
# RNA: GGGAGUUCUACAGUCCGACGAUCAAGUUUCAGAGUAACAUUCAGUAACCUCUUUAAAUGCAAUUAUCCUUAUUAUAAGCUAAGCAGAAUAAUAAUUUAAUACAUAGAGUGAACUACACACAAAGCCUGAACCGCGAAAAUGGUCAACAGAGGAUUGAGCAUCA
# B9: 151880847_151881223_522_CDS_ENSMUSG00000028034_ENSMUST00000166984|mouse|control|control (ssRNA)
# RNA: GGGAGUUCUACAGUCCGACGAUCAGGUGUUCCAGUUAGCAUACAAGACCUUUCUGGUAGGCCACCACUAUCAGGUGCUAUCUGUAUCUUGCAUCCAGAUUCCUGCUGUAUUCGUGAGAUCUGUUCACCUCCUCUGCCAAUUAUCAACAGAGGAUUGAGCAUCA
# B10: chr7:130129250:130129251:+_ENSMUSG00000030779_ENSMUST00000052135|mus_hu|motif|central (ssRNA)
# RNA: GGGAGUUCUACAGUCCGACGAUCCUCCUCUGGUAAGAAGGGAGGUUUCUCUUUCUUCCCAAUUGCAUAUGCUUCUGCAUCGGUAGUUGGUAUUGCAUAUUUUCCAGUGUUGGUAAGCAUUGCACCUUUCAUAUUAGGAUCUUUCAACAGAGGAUUGAGCAUCA
# B11: 3247649_3247769_182_3pUTR_ENSG00000101608_ENST00000217652|human|control|control (ssRNA)
# RNA: GGGAGUUCUACAGUCCGACGAUCUCUUGGCCCGCAGAGUGGGUCUGACUUCACGGAGGGGCGACAGAGAGGGAAGUCGCCAGUGUGGUCAGCGGGCGUGGUAUUGACCAAGUGCAUGAGAAGGAAGUGUAAAGUGGGCGACCUCAACAGAGGAUUGAGCAUCA
# B12: chr17:39847130:39847131:+_ENSG00000173812_ENST00000469257|hu_hu|FALSE|FALSE (ssRNA)
# RNA: GGGAGUUCUACAGUCCGACGAUCGUUACAUUAUACAAGCUGUGAGGUUUUUAAACCUGUGACAAGGGAGAGAAGGGAAAUUCUACUCAUUGCAAGGAAAUCCUCACUUAAGCUUCAGUGAGCCACAAGCACUUAAAACCCAUGCAACAGAGGAUUGAGCAUCA
# B13: chr9:135205225:135205226:-_ENSG00000107290_ENST00000224140|hu_hu|FALSE|FALSE (ssRNA)
# RNA: GGGAGUUCUACAGUCCGACGAUCUGCAGAAGUCAGAUCCACAAAAGUGUUACAUGGAGGUGCUUUGAAUUUUAUGUUUCUAAUAAUUUGCUUUAAGCAACUUUGUAGCUCAUGGGUUUCCUGACUAGUCAACUGCCAACCUAGCAACAGAGGAUUGAGCAUCA
# B14: 38783104_38791802_1884_CDS_ENSG00000006715_ENST00000395969|human|control|control (ssRNA)
# RNA: GGGAGUUCUACAGUCCGACGAUCAAUCAUCUUCAGGGCACUUCGGCUAUUACCCAUUCGGCUCAGAAGAUAAACUGUCUCUUCUACAAAGUUUCUCUGUUGACAGAUCUCAAGAGCCUUUUCAAGUGGGCAAUGGGUACUGUCCAACAGAGGAUUGAGCAUCA
# B15: chr10:36716825:36716826:+_ENSMUSG00000019777_ENSMUST00000019911|mus_mus|FALSE|FALSE (ssRNA)
# RNA: GGGAGUUCUACAGUCCGACGAUCGGCAACAUUCCGGAUUGUGUAGCCUCCUCCACCGAGCAUCAGCAAUGGCAAGUUAAAAGUUUUCACUACUUCUACACAUUUAGCAUGACCUUUGACAGUUAGAUUGAAACAACCAAGCCUCAACAGAGGAUUGAGCAUCA
# B16: chr4:65274301:65274302:+_ENSMUSG00000051675_ENSMUST00000050850|mus_hu|motif|central (ssRNA)
# RNA: GGGAGUUCUACAGUCCGACGAUCGUGCAGAAGCUUGGGACGCAGCUGCUCUUCUGUGAAGGACUCCAUGCAGAUGGGGCAUUCGGGCACUUCCCGGAGGGCAUCCAGGUUCAGGUGAGAAGCUGCUGCUGCAGCCAUUGCUCUCAACAGAGGAUUGAGCAUCA
# B17: chr1:220276048:220276049:+_ENSG00000067704_ENST00000302637|hu_hu|hu_hu_hu_mus_True|58_68 (ssRNA)
# RNA: GGGAGUUCUACAGUCCGACGAUCGCAAAUUGCCUGGUUGGCGGGAAUUGUCCAAGGCUGGGUGGUCCAGACCAAAAUACUAACAGGGGAUGAGGCAUCUGUAAGAGACUCCAACUUCGGAGGAGGUCUCAGGAGGGGGAAUCUCAACAGAGGAUUGAGCAUCA
# B18: 35327902_35333505_881_CDS_ENSG00000108094_ENST00000537177|human|control|control (ssRNA)
# RNA: GGGAGUUCUACAGUCCGACGAUCGUGGUCUGCUACCAUUCGUUGUUGACAUUCAUGAAUCACCUUAGUAUAUGAACUUGGAUGUAGGUAUUUUCGACAUCGAAUUUCUUCAUCUUUUAAUCUACCUAGAACCUUUUCCAUAUACAACAGAGGAUUGAGCAUCA
# B19: 98515251_98519444_2840_CDS_ENSG00000196367_ENST00000355540|human|control|control (ssRNA)
# RNA: GGGAGUUCUACAGUCCGACGAUCCUUACCGAGCACACGGUAGGCCACGUGGGAGAUGCUGUCAGCAGGGUUGCGUAAGGUGCGCCACAGAGCCUGCAUGAGCUCUGCGCGCACCGGCUGGAUGUGGUCGUAGAGGAAGUCGGGCAACAGAGGAUUGAGCAUCA
# B20: 18861663_18861783_5531_CDS_ENSG00000157106_ENST00000446231|human|control|control (ssRNA)
# RNA: GGGAGUUCUACAGUCCGACGAUCAGUUGCACUUUCAUCAAGUUCUGAAAGCCAUGGGCAGCUUGAUAUCAACUGACGCCAGAUAACAUCAACCAUGUCAUCUUCUUCGUUGUCUUCACUCUCAGUUAUCUGAAGUGUUAUAUCCAACAGAGGAUUGAGCAUCA
# B21: chr2:153237265:153237266:-_ENSMUSG00000061411_ENSMUST00000109784|mus_mus|mus_mus_mus_hu_False|28_98 (ssRNA)
# RNA: GGGAGUUCUACAGUCCGACGAUCAAAAAAAAAAAAAGAAAAGUGUCCUUGUGCCCAAAGUCUCAGGUGCUUGGAGUGUGGCUAGAAACAGCUCUUUUGGAUCCCACCUCUUUCAGAAACAAAAUGUACCAACUGGUGAGGCAGCAACAGAGGAUUGAGCAUCA
# B22: chr4:140556289:140556290:+_ENSMUSG00000036622_ENSMUST00000037055|mus_mus|mus_mus_mus_hu_False|18_28 (ssRNA)
# RNA: GGGAGUUCUACAGUCCGACGAUCGAUGGAGCUCACCAGGCCCCCUUUUGCCGUGCAGAACCCUGUGCGGGUCACCACUGCCAGGACGUGCGGUCCCACAUAGGCCCGGGCCUGCAGAAUGAGGGUGCCGCAGAAGAGUGUGUGCAACAGAGGAUUGAGCAUCA
# Target: T1, UNK ZnF1-3 (human, UniProt Q9C0B0 31-174)
# T1 sequence: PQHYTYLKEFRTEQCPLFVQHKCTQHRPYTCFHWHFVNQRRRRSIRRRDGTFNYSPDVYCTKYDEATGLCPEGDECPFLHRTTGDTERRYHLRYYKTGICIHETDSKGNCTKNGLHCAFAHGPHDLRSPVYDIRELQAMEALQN
# Assay: nsRBNS (natural sequence RNA bind-n-seq); RBNS binding buffer (assumed for nsRBNS): 25 mM Tris pH 7.5, 150 mM KCl, 3 mM MgCl2, 0.01% Triton X-100, 500 ug/ml BSA, 20 U/ml SUPERase-In, 4 C; UNK is unkempt and MSI1 is Musashi-1; names of the RNAs are library labels; protein concentration not given here; high values mean tight binding
row,Binder,binding signal [enrichment R]
1,B1,0.622
2,B2,1.16
3,B3,1.85
4,B4,0.962
5,B5,2.1
6,B6,1.66
7,B7,0.431
8,B8,0.748
9,B9,0.627
10,B10,0.366
11,B11,1.23
12,B12,1.25
13,B13,1.31
14,B14,0.393
15,B15,1.73
16,B16,0.843
17,B17,2.19
18,B18,0.572
19,B19,1.31
20,B20,0.541
21,B21,2.16
22,B22,0.672
